Measurements from article PMC7150991 (Viruses, 2020).

System: influenza A virus nucleoprotein
Details: A549 cells, 12 h p.i., about 70% in control cells

SMILES | NP colocalized with nuclear staining (BBR 20 or 40 µM) | NP colocalized with nuclear staining (U0126 10 µM)
COc1ccc2cc3[n+](cc2c1OC)CCc1cc2c(cc1-3)OCO2 [BBR, Berberine chloride hydrate] | More than 90% | 
N#CC(=C(/N)Sc1ccccc1N)/C(C#N)=C(/N)Sc1ccccc1N [U0126, reference compound] |  | More than 90%

Where two headings read alike, the source gives them in different places.
